target: isolated recombinant JAK1 kinase domain (Homo sapiens (Human), UniProt P23458); details: read-out: JAK1 Ki; isolated recombinant JAK1 kinase domain, 25 μM ATP
Sequence (P23458 875-1153): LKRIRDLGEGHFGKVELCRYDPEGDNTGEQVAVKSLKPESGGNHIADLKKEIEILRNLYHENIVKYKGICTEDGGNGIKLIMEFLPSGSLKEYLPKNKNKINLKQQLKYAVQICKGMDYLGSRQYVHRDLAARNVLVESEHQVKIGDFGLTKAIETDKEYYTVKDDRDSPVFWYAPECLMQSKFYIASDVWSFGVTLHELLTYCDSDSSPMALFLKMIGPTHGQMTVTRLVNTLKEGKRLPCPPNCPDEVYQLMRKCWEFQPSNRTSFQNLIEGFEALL

| SMILES | Ki |
| --- | --- |
| CN1C2COCC1CN(C(=O)c1ccc(Nc3nc4c(N5CCC(O)(c6ccc(Cl)cc6)CC5)cccn4n3)cc1)C2 [Example 1-50, [4-[[8-[4-(4-chlorophenyl)-4-hydroxy-1-piperidyl]-[1,2,4]triazolo[1,5-a]pyridin-2-yl]amino]phenyl]-(9-methyl-3-oxa-7,9-diazabicyclo[3.3.1]nonan-7-yl)methanone] | 3.11 nM |
| O=C(c1ccc(Nc2nc3c(N4CCC(O)(c5ccc(Cl)cc5)CC4)cccn3n2)cc1)N1CCCC(O)(CN2CCCC2)CC1 (stereo not shown) [Example 1-51, [4-[[8-[4-(4-chlorophenyl)-4-hydroxy-1-piperidyl]-[1,2,4]triazolo[1,5-a]pyridin-2-yl]amino]phenyl]-[4-hydroxy-4-(pyrrolidin-1-ylmethyl)azepan-1-yl]methanone] | 3.74 nM |
| CN1CCCCC1C1CCCN1C(=O)c1ccc(Nc2nc3c(N4CCC(O)(c5ccc(Cl)cc5)CC4)cccn3n2)cc1 (stereo not shown) [Example 1-52, [4-[[8-[4-(4-chlorophenyl)-4-hydroxy-1-piperidyl]-[1,2,4]triazolo[1,5-a]pyridin-2-yl]amino]phenyl]-[2-(1-methyl-2-piperidyl)pyrrolidin-1-yl]methanone] | 1.88 nM |
| CC(=O)N1CC2(C1)CN(C(=O)c1ccc(Nc3nc4c(N5CCC(O)(c6ccc(Cl)cc6)CC5)cccn4n3)cc1)C2 [Example 1-53, 1-[2-[4-[[8-[4-(4-chlorophenyl)-4-hydroxy-1-piperidyl]-[1,2,4]triazolo[1,5-a]pyridin-2-yl]amino]benzoyl]-2,6-diazaspiro[3.3]heptan-6-yl]ethanone] | 1.03 nM |
| O=C(c1ccc(Nc2nc3c(N4CCC(O)(c5ccc(Cl)cc5)CC4)cccn3n2)cc1)N1CCN(C2CC2)CC1 [Example 1-54, [4-[[8-[4-(4-chlorophenyl)-4-hydroxy-1-piperidyl]-[1,2,4]triazolo[1,5-a]pyridin-2-yl]amino]phenyl]-(4-cyclopropylpiperazin-1-yl)methanone] | 1.15 nM |
| CN1CC2CC(C1)N(C(=O)c1ccc(Nc3nc4c(N5CCC(O)(c6ccc(Cl)cc6)CC5)cccn4n3)cc1)C2 (stereo not shown) [Example 1-55, [4-[[8-[4-(4-chlorophenyl)-4-hydroxy-1-piperidyl]-[1,2,4]triazolo[1,5-a]pyridin-2-yl]amino]phenyl]-(3-methyl-3,6-diazabicyclo[3.2.1]octan-6-yl)methanone] | 3.19 nM |
| O=C(c1ccc(Nc2nc3c(N4CCC(O)(c5ccc(Cl)cc5)CC4)cccn3n2)cc1)N1CCN(C2CCC2)CC1 [Example 1-56, [4-[[8-[4-(4-chlorophenyl)-4-hydroxy-1-piperidyl]-[1,2,4]triazolo[1,5-a]pyridin-2-yl]amino]phenyl]-(4-cyclobutylpiperazin-1-yl)methanone] | 4.3 nM |
| Cc1ccc(CNC(=O)c2ccc(Nc3nc4c(N5CCC(O)(c6ccc(Cl)cc6)CC5)cccn4n3)cc2)cn1 [Example 1-58, 4-[[8-[4-(4-chlorophenyl)-4-hydroxy-1-piperidyl]-[1,2,4]triazolo[1,5-a]pyridin-2-yl]amino]-N-[(6-methyl-3-pyridyl)methyl] benzamide] | 3.18 nM |
| CN1CCC2(C1)CN(C(=O)c1ccc(Nc3nc4c(N5CCC(O)(c6ccc(Cl)cc6)CC5)cccn4n3)cc1)C2 [Example 1-59, [4-[[8-[4-(4-chlorophenyl)-4-hydroxy-1-piperidyl]-[1,2,4]triazolo[1,5-a]pyridin-2-yl]amino]phenyl]-(7-methyl-2,7-diazaspiro[3.4]octan-2-yl)methanone] | 1.27 nM |
| CN1CCCC12CN(C(=O)c1ccc(Nc3nc4c(N5CCC(O)(c6ccc(Cl)cc6)CC5)cccn4n3)cc1)C2 [Example 1-60, [4-[[8-[4-(4-chlorophenyl)-4-hydroxy-1-piperidyl]-[1,2,4]triazolo[1,5-a]pyridin-2-yl]amino]phenyl]-(5-methyl-2,5-diazaspiro[3.4]octan-2-yl)methanone] | 1.06 nM |
| CC1CCN(CCNC(=O)c2ccc(Nc3nc4c(N5CCC(O)(c6ccc(Cl)cc6)CC5)cccn4n3)cc2)CC1 [Example 1-61, 4-[[8-[4-(4-chlorophenyl)-4-hydroxy-1-piperidyl]-[1,2,4]triazolo[1,5-a]pyridin-2-yl]amino]-N-[2-(4-methyl-1-piperidyl)ethyl] benzamide] | 2.53 nM |
| CN1CCC(NC(=O)c2ccc(Nc3nc4c(N5CCC(O)(c6ccc(Cl)cc6)CC5)cccn4n3)cc2)C1 (stereo not shown) [Example 1-62, 4-[[8-[4-(4-chlorophenyl)-4-hydroxy-1-piperidyl]-[1,2,4]triazolo[1,5-a]pyridin-2-yl]amino]-N-(1-methylpyrrolidin-3-yl)benzamide] | 1.42 nM |
| Cc1ccnc(CNC(=O)c2ccc(Nc3nc4c(N5CCC(O)(c6ccc(Cl)cc6)CC5)cccn4n3)cc2)c1 [Example 1-63, 4-[[8-[4-(4-chlorophenyl)-4-hydroxy-1-piperidyl]-[1,2,4]triazolo[1,5-a]pyridin-2-yl]amino]-N-[(4-methyl-2-pyridyl)methyl] benzamide] | 4.13 nM |
| Cc1ncccc1CNC(=O)c1ccc(Nc2nc3c(N4CCC(O)(c5ccc(Cl)cc5)CC4)cccn3n2)cc1 [Example 1-64, 4-[[8-[4-(4-chlorophenyl)-4-hydroxy-1-piperidyl]-[1,2,4]triazolo[1,5-a]pyridin-2-yl]amino]-N-[(2-methyl-3-pyridyl)methyl] benzamide] | 2.27 nM |
| CCN1CCC(CN(C)C(=O)c2ccc(Nc3nc4c(N5CCC(O)(c6ccc(Cl)cc6)CC5)cccn4n3)cc2)C1 (stereo not shown) [Example 1-65, 4-[[8-[4-(4-chlorophenyl)-4-hydroxy-1-piperidyl]-[1,2,4]triazolo[1,5-a]pyridin-2-yl]amino]-N-[(1-ethylpyrrolidin-3-yl)methyl]-N-methyl-benzamide] | 2.34 nM |
| CN1CCCC2(CCCN(C(=O)c3ccc(Nc4nc5c(N6CCC(O)(c7ccc(Cl)cc7)CC6)cccn5n4)cc3)C2)C1 (stereo not shown) [Example 1-66, [4-[[8-[4-(4-chlorophenyl)-4-hydroxy-1-piperidyl]-[1,2,4]triazolo[1,5-a]pyridin-2-yl]amino]phenyl]-(8-methyl-2,8-diazaspiro[5.5]undecan-2-yl)methanone] | 2.22 nM |
| Cn1ccnc1CN1CCN(C(=O)c2ccc(Nc3nc4c(N5CCC(O)(c6ccc(Cl)cc6)CC5)cccn4n3)cc2)CC1 [Example 1-67, [4-[[8-[4-(4-chlorophenyl)-4-hydroxy-1-piperidyl]-[1,2,4]triazolo[1,5-a]pyridin-2-yl]amino]phenyl]-[4-[(1-methylimidazol-2-yl)methyl]piperazin-1-yl]methanone] | 3.41 nM |
| O=C(c1ccc(Nc2nc3c(N4CCC(O)(c5ccc(Cl)cc5)CC4)cccn3n2)cc1)N1CCCC1c1cccnc1 (stereo not shown) [Example 1-68, [4-[[8-[4-(4-chlorophenyl)-4-hydroxy-1-piperidyl]-[1,2,4]triazolo[1,5-a]pyridin-2-yl]amino]phenyl]-[2-(3-pyridyl)pyrrolidin-1-yl]methanone] | 2.16 nM |
| CN1CCN(C(=O)c2ccc(Nc3nc4c(N5CCC(O)(c6ccc(Cl)cc6)CC5)cccn4n3)cc2)CC(CO)C1 (stereo not shown) [Example 1-69, [4-[[8-[4-(4-chlorophenyl)-4-hydroxy-1-piperidyl]-[1,2,4]triazolo[1,5-a]pyridin-2-yl]amino]phenyl]-[6-(hydroxymethyl)-4-methyl-1,4-diazepan-1-yl]methanone] | 6.12 nM |
